Assay results reported in paper PMC4336329 (PLoS ONE, 2015).
Out of some 310,000 compounds screened, about 14,000 (4.5%) showed an effect of 50% or more. Effects have a minus sign here. This is one part of the list.

These compounds were tested against human ether-à-go-go-related gene (hERG) potassium channel (human, UniProt Q12809) (assay: primary screen, population patch clamp on CHO cells stably expressing hERG).
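Also: peak tail current of the secondary pulse compared with the same well before compound.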

Chain of human ether-à-go-go-related gene (hERG) potassium channel (Q12809 whole entry, looked up): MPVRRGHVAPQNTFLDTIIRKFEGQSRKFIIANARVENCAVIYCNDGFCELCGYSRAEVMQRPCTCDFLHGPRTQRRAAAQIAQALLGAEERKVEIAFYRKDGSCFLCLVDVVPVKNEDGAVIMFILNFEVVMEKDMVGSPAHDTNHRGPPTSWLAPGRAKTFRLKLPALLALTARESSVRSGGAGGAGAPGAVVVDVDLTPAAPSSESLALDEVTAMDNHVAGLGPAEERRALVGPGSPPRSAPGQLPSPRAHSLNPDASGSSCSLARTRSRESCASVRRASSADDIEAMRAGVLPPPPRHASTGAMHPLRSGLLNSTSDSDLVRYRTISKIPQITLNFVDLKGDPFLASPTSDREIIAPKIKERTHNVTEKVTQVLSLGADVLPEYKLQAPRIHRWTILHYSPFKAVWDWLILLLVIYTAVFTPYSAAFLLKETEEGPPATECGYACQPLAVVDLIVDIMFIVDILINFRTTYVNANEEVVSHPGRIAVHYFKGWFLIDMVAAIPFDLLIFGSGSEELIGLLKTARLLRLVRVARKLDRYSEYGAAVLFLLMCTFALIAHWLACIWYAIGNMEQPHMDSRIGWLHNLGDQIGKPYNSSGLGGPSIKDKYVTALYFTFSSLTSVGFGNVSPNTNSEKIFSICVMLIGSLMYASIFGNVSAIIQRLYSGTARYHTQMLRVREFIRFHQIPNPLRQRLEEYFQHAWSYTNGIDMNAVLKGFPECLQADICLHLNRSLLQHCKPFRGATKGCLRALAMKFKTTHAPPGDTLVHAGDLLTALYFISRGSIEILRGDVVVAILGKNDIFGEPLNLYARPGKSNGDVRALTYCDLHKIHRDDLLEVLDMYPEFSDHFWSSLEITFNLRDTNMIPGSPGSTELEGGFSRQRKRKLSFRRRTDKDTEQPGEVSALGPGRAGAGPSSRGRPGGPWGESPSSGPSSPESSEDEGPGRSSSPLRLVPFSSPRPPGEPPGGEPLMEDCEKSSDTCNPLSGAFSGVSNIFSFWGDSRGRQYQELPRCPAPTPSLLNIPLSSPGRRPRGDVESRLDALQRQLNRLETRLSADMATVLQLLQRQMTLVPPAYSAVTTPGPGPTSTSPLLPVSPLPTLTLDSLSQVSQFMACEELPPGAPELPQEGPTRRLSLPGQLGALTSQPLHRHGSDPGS

| Compound | hERG current change (%, negative = inhibition) at 10uM [%] |
| --- | --- |
| Cc1c(C(=O)N2CCN(c3cccc(Cl)c3)CC2)cccc1[N+](=O)[O-] | -42.5 |
| Cc1nc2cc(-c3ccccc3)sc2c(=O)n1N | 14.5 |
| CCOc1ccc(S(=O)(=O)N2CCOCC2)cc1[N+](=O)[O-] | -52.2 |
| CC(C)Nc1ccccc1 | 12.2 |
| COC(=O)c1ccn(CC(=O)NC2CCCCC2)n1 | 16.5 |
| O=C(NCCN1CCOCC1)c1cccc(S(=O)(=O)N2CCCC2)c1 | 6.43 |
| O=C(O)COCC(=O)N1CCN(C2c3ccccc3-c3ccccc32)CC1 | 8.11 |
| O=C(Oc1cccc(NC(=O)c2ccco2)c1)c1cccc(S(=O)(=O)N2CCCCC2)c1 | 6.51 |
| CCOc1ccc(/C=N/NC(=O)C(=O)NCc2ccco2)cc1 | -0.455 |
| CCOC(=O)N1CCN(C(=O)CSc2nc3c(c(=O)n2-c2ccccc2OC)SCC3)CC1 | -8.93 |
| COc1cc2c(c(OC)c1OC)-c1ccc(NC(=O)c3ccc(F)cc3)c(=O)cc1[C@@H](NC(C)=O)CC2 | -17.1 |
| CC(=O)c1cccc(NC(=S)NCc2ccccc2)c1 | 12 |
| C[NH+]1CCC2(CC1)C(C#N)=C(N)NC([S-])=C2C#N | -2.36 |
| COc1ccc(-c2nn(C)c3sc(C(=O)NCc4ccco4)cc23)cc1OC | 12.5 |
| COc1ccc(C(=O)NC(=S)NC2CCSC2=O)cc1 (stereo not shown) | -22 |
| OCC(O)CN1CCCC1 (stereo not shown) | 16.6 |
| Cc1ccc(-n2ncc3c2CC(C)(C)CC3NC(=O)CCc2ccncc2)cc1 (stereo not shown) | -72.2 |
| FC(F)(F)c1cc(Oc2ccc(Cl)cc2)nc(-c2ccccn2)n1 | 22.9 |
| O=C(NC1CCN(C(=O)C2CCCCC2)CC1)c1ccccc1 | 7.98 |
| CCc1nnc(NC(=S)Nc2ccccc2)s1 | 15.9 |
| COc1ccc(Nc2nc3ccccc3nc2NS(=O)(=O)c2cccs2)c(OC)c1 | 8.29 |
| COc1ccc(C)cc1-n1nnnc1SC/C(O)=C(\C#N)c1nc2ccccc2[nH]1 | 9.03 |
| CCN(CC)C(=O)C(C)N(C#N)c1nc(C)cc(C)n1 (stereo not shown) | -0.693 |

| Compound | hERG current change (%, negative = inhibition) at 10uM [%] |
| --- | --- |
| CC(=O)Nc1ccc(S(=O)(=O)Nc2ccc(F)c([N+](=O)[O-])c2)cc1 | 14.9 |
| Cc1ccc(NC(=O)Nc2ccc3c(c2)OCO3)nc1 | 13.1 |
| COCC(=O)Nc1cc(C(=O)OC)cc(C(=O)OC)c1 | 13 |
| CN(CCOc1ccccc1)CC(O)COCc1ccccc1F (stereo not shown) | -39.5 |
| O=C(Nc1ccccc1-c1ccccc1)c1ccccc1 | 13.2 |
| Cc1c(C#N)c(N=CN(C)C)c(C(=O)c2ccc(Br)cc2)n1-c1ccccc1 | -13.4 |
| CC(C)C(OC(=O)c1ccco1)C(=O)NCc1ccco1 (stereo not shown) | 11.5 |
| CCOC(=O)C1CCCN(C(=O)c2cn(CC)c3ccc(S(=O)(=O)N4CCCC4)cc3c2=O)C1 (stereo not shown) | -8.41 |
| COCCn1nnnc1CN(CCc1ccccc1)Cc1cc2ccc(C)cc2[nH]c1=O | -57.2 |
| Cc1ccc(C(=O)NCCc2ccc(F)cc2)s1 | 14.6 |
| CC(c1ccccc1)n1c(Br)nc2c1c(=O)[nH]c(=O)n2C (stereo not shown) | 10.3 |
| CC(=O)Nc1nnc(SCC(=O)Nc2nc(C)cs2)s1 | 10.3 |
| N/C(=N\OC(=O)COc1ccc2ccccc2c1)c1cccnc1 | -1.4 |
| CCC(=O)N1CCc2nc(-c3ccccc3)sc2C1 | 0.762 |
| CC(C)CN1CCC(=O)N([C@H](CO)c2ccccc2)CC1 | 9.33 |
| O=S(=O)(Nc1c(O)ccc2ccccc12)c1cccc2ccccc12 | 6.79 |
| Br.C1CN=C(NC23CC4CC(CC(C4)C2)C3)C1 | 0.557 |
| Cc1csc(N(C(=O)Cc2ccccc2F)c2ccccc2)n1 | -6.87 |
| COc1ccc(Br)cc1/C=C/C(=O)NCC(=O)O | 23.1 |
| O=C1CN=C(c2ccc(F)cc2)c2oc3ccccc3c2N1 | 2.47 |
| CN1CCc2ccccc2C1C1CCNCC1 (stereo not shown) | 13.7 |
| Cc1ccc(C(=O)NCC(=O)OCC(=O)/C=C2\N(C)c3ccccc3C2(C)C)cc1C | -18.7 |
| Cc1cc(C(=O)NC(C)CCC(C)C)c2ccccc2n1 (stereo not shown) | 15.9 |
